Data published in article PMC4336329 (PLoS ONE, 2015).
Hit rate of the full screen: of about 310,000 compounds, about 14,000 (4.5%) showed an effect of 50% or more. The effect is printed as a negative number. Some of the results follow.

What follows are molecules tested against human ether-à-go-go-related gene (hERG) potassium channel (human, UniProt Q12809) (assay: primary screen, population patch clamp on CHO cells stably expressing hERG).
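Further: peak tail current of the secondary pulse compared with the same well before compound.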

human ether-à-go-go-related gene (hERG) potassium channel, sequence (Q12809 whole entry, looked up): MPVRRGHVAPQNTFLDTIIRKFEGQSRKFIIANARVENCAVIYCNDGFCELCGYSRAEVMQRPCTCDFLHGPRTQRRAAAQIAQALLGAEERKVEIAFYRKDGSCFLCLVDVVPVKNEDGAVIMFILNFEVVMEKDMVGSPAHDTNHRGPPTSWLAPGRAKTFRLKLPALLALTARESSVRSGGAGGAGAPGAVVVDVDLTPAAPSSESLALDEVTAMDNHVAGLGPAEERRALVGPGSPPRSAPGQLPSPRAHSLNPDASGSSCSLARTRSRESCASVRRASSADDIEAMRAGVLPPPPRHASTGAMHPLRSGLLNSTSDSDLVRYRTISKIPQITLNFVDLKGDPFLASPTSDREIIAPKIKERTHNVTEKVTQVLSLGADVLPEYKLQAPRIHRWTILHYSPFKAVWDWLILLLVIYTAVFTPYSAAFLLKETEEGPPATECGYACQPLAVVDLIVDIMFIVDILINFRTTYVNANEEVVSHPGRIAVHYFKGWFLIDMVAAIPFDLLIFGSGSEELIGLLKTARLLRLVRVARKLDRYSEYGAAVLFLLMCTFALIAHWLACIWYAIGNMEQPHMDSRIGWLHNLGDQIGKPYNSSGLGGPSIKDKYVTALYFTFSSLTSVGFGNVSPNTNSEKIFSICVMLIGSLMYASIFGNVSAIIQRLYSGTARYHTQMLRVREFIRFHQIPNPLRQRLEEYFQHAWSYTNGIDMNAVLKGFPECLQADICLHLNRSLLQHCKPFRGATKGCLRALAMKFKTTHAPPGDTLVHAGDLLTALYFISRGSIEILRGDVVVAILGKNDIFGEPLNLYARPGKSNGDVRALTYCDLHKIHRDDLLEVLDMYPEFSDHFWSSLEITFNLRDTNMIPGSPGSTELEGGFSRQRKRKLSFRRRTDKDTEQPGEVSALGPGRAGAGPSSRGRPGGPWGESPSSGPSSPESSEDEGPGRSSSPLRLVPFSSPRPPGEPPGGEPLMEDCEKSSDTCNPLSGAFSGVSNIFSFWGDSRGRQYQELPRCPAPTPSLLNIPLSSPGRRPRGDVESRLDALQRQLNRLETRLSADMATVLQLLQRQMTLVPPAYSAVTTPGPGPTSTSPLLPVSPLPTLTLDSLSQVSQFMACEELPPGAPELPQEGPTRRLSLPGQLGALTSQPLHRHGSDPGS

SMILES | hERG current change (%, negative = inhibition) at 10uM
N#C/C(=C\c1c[nH]c2ccccc12)C(=O)NC1CCCC1 | 0.831%
CC(=O)C1=C(C)NC(=O)NC1c1cccs1 (stereo not drawn) | 15.9%
Cc1ccc(C(=O)N2c3ccccc3N(Cc3ccccc3)C(=O)C2(C)C)cc1 | -1.87%
O=C(CCSc1ccccc1)NCc1cccnc1 | -2.31%
COCC1CCN(C(=O)c2ccc3oc(Cc4ccc(Cl)cc4)nc3c2)C1 (stereo not drawn) | -14.1%
CSCCC(NS(=O)(=O)c1ccccc1F)C(=O)N1CCCCCC1 (stereo not drawn) | -2.21%
Cc1nc2c(C)cccc2cc1C(=O)N/N=C/c1cccnc1 | -1.69%
CCCn1nnnc1NCc1ccc(Cl)cc1Cl | 4.68%
O=C(O)C1CCN(C(=O)c2csc(-c3ccc4c(c3)CCO4)n2)CC1 | -1.32%
COCCn1c(=O)[nH]c2cc(C(=O)NCCN3CCN(c4ccccc4)CC3)ccc2c1=O | 1.21%
Cc1c(CCC(=O)NCCCn2ccnc2)c(=O)oc2cc3occ(C(C)(C)C)c3cc12 | -77.7%
Oc1ccc(Cl)c(Cl)c1Cl | 12.8%
COc1ccc([C@H]2CC(=O)C=C(c3ccc4c(c3)sc3ccccc34)C2)cc1 | 13.4%
NC(=O)c1ccc(NC(=O)CSc2nnc(-c3ccccn3)n2N)cc1 | 17.1%
Cn1c(=O)c2[nH]c(NCC3CCCO3)nc2n(-c2ccccc2)c1=O (stereo not drawn) | -4.21%
CC(C)Cc1ccc(C(C)C(=N)N)cc1.Cl (stereo not drawn) | -6.14%
CCN1CC(C)C(O)(c2ccccc2)CC1C (stereo not drawn) | 8.36%
CN1N=C2c3ccccc3CCC2C1c1ccc(C(F)(F)F)cc1 (stereo not drawn) | 17%
Cc1cc2c(s1)c1cnn(Cc3ccccc3F)c(=O)c1n2C | 12.5%
Cn1c(CCCOc2ccc(Cl)cc2Cl)nnc1SCC(=O)Nc1cccc(F)c1 | -3.24%
Cc1cccc(NC(=O)Cc2ccc(Br)cc2)n1 | 1.47%
CC(C)CCN1CCN(Cc2ccc(C(F)(F)F)cc2)CC1CCO (stereo not drawn) | -58.1%
Cc1ccc(CNC(=O)C2CC(=O)N(C3CCCCCC3)C2)cc1 (stereo not drawn) | 4.25%

SMILES | hERG current change (%, negative = inhibition) at 10uM
S=C(NNc1ccnc2cc(Cl)ccc12)Nc1ccc(Cl)cc1Cl | 17.5%
Cc1cc(C)cc(N(CCC#N)C(=O)COC(=O)c2ccccc2SCC(=O)N2CCCC2)c1 | -19.4%
NS(=O)(=O)c1ccc(NC(=S)NC2CCCCC2)cc1 | 14.7%
Cc1cs/c(=N/C(=S)Nc2ccccc2)n1C | 34.9%
Cc1ccc(CSc2nnc(-c3cccc(S(=O)(=O)N4CCOCC4)c3)n2CC(C)C)cc1 | -29.5%
CN(C)CCNC(=O)CN1C(=O)COc2ccc(C(C)(C)C)cc21 | -2.14%
CC(C)(C)Sc1nc(O)cc(=O)[nH]1 | -14.2%
O=C(COc1ccc(-c2ccccc2)cc1)NNC(=O)Nc1ccc(F)cc1F | 20.7%
O=C(NCc1csc(-c2cccs2)n1)C1CCCCC1 | -14.3%
O=C(O)c1ccc(NS(=O)(=O)c2ccc(N3CCCC3)c([N+](=O)[O-])c2)cc1 | 11.3%
Cc1ccc2nc(SCC(=O)Nc3c(F)cccc3F)[nH]c2c1 | -12.6%
CN(C)C(N)=NCCC[C@H](N)C(=O)O.Cl | 9.67%
CN(C)C=Nc1nc2ccccc2nc1N1CCCC1 | 30.4%
COc1ccc(Br)c(OC)c1C(=O)NC(=O)Nc1c(F)cccc1F | 9.25%
O=Cc1ccc(C(=O)OCC(=O)NCCC2=CCCCC2)cc1 | 5.53%
O=C1CCCC2=C1C1(CCCCC1)N=C(Nc1nc3ccccc3o1)N2 | 1.98%
Cc1ccc2[nH]cc(C(=O)CN3CCN(C)CC3)c2c1 | -8.16%
CCc1cc(=O)oc2c3c(cc(OCC(=O)NCc4ccco4)c12)OC(C)(C)CC3 | -10.2%
Cc1oc(-c2cccc(Cl)c2)nc1CS(=O)(=O)CC(=O)NCCN1CCCC1 | -0.675%
CSc1ccc(S(=O)(=O)NCC(=O)OCC(=O)N(C)Cc2ccccc2)cc1[N+](=O)[O-] | -15.2%
CCOc1ccc(NS(=O)(=O)c2ccc(C(=O)NCc3ccccn3)cc2)cc1 | -15.7%
CCOC(=O)c1[nH]c2ccc(F)cc2c1N=C(C)N(CC)CC | -55.4%
